Source: PubChem BioAssay AID1508624 (National Center for Advancing Translational Sciences (NCATS), 2021)
Hit rate of the full screen: of about 48,000 compounds, about 120 (0.25%) were called active. Another 4% or so got no clear call; they are omitted. Calls come from the whole dose curve; as a rule, active = well fitted activation curve with a large enough effect; inconclusive = small, poorly fitted or top-dose-only effect, or another doubt; inactive = no such curve, though single readings can be large or run the other way. The list shows a part of the results.

test: Primary qHTS for Identification of Small Molecule Activators of Huntingtin-Antisense Promoter Activity; conditions: HEK293 HTT-AS promoter firefly luciferase reporter (activity 0% = vehicle and -100% = no light), 24 h; series mostly up to 57.5 µM; activity change, positive = activation: at the top concentration; note: nearly all actives have a fitted effect of over 55% in size
Method in brief: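 Quantitative HTS used concentration series of up to 57.5 uM final on HEK293 luciferase reporter cells, 24 h at 37 degrees C. Readout was Dual-Glo firefly luminescence.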
Potency is the fitted concentration of half-maximal effect.

| Structure (SMILES) | activity change, positive = activation | Potency |
| --- | --- | --- |
| Cc1ccc(C)c(NC(=O)CCn2nc(C)c3c(C)n(-c4ccccc4)nc3c2=O)c1 | inactive: -2.71% |  |
| Cc1cccc(-c2nn3c(=O)cc(CN4CCN(S(=O)(=O)c5ccc(Cl)cc5)CC4)nc3s2)c1 | inactive: -23.2% |  |
| CCC(C(=O)Nc1ccccc1C(=O)OC)n1nc(C)c2c(C)n(-c3ccc(C)cc3)nc2c1=O (stereo not given) | inactive: -25.3% |  |
| CCC1CCc2nc3sc(C(=O)Nc4ccc(F)c(Cl)c4)c(N)c3cc2C1 (stereo not given) | inactive: -2.82% |  |
| Cc1ccccc1Cn1c(=O)n(CCc2ccccc2)c(=O)c2c(C)c(C)sc21 | inactive: 16.8% |  |
| COc1cccc(OCCSc2nc3ccccc3n2CC(=O)N2CCCCC2)c1 | inactive: -20.6% |  |
| COc1ccc(-c2nc(CN3CCC(C(=O)NCCCOC(C)C)CC3)c(C)o2)cc1OC | inactive: -7.92% |  |
| COc1cccc(-n2cc(C(=O)NCc3ccccc3OC)c3ccccc3c2=O)c1 | inactive: -12% |  |
| CCC[C@H](Nc1nc(-c2ccc(NC(=O)NCC)c(OC)c2)ncc1C)c1cccnc1 | inactive: -43.8% |  |
| CCc1cc2c(cc3c(=O)n(CC(=O)NCCc4ccc(OC)c(OC)c4)ncn32)s1 | inactive: -14.4% |  |
| COC(=O)c1cc(S(=O)(=O)NCC2CCN(Cc3cccc(F)c3)CC2)c[nH]1 | inactive: 3.75% |  |
| O=C(CCn1ccc2cc(S(=O)(=O)N3CCCC3)ccc21)NCc1cccc(F)c1 | inactive: -19.2% |  |
| COC(=O)CSc1nc(-c2ccc(F)cc2)cc(C(F)(F)F)n1 | inactive: -20.6% |  |
| COc1cc(OC)c(C2Nc3ccccc3-c3nnc(SCc4ccccc4)nc3O2)cc1OC (stereo not given) | inactive: 27.8% |  |
| COc1ccc(OC)c(C2N=C(N)Nc3nc4ccccc4n32)c1 (stereo not given) | inactive: -14.6% |  |
| COc1ccc(NC(=O)Cn2c(=O)n(Cc3nc(C)no3)c(=O)c3cc4c(cc32)OCO4)cc1OC | inactive: -11% |  |
| Cc1cccc(C)c1-n1ncc(C(=O)NCCN2CCOCC2)c1C1CCN(C(=O)OC(C)(C)C)CC1 | inactive: -1.55% |  |
| O=C(CC(c1cccs1)N1Cc2ccccc2C1=O)Nc1ccc(F)c(Cl)c1 (stereo not given) | inactive: -31.6% |  |
| CC(=O)Nc1cc(C(=O)NCc2ccc(C)cc2)ccc1Sc1ccc(C)cc1 | inactive: -30.7% |  |
| C=CCC(CC=C)(CNC(=O)C(=O)Nc1cccc(C(F)(F)F)c1)c1ccccc1 | inactive: -18.7% |  |
| CCc1ccc(-c2nc(CN3CCCC(C(=O)N4CCN(c5cc(Cl)ccc5C)CC4)C3)c(C)o2)cc1 (stereo not given) | inactive: -68.8% |  |
| CC(CNC(=O)Cn1ccc2cc(S(=O)(=O)N3CCCCCC3)ccc21)c1ccccc1 (stereo not given) | inactive: -21.4% |  |
| COc1ccc(Cl)cc1NC(=O)CN(C)S(=O)(=O)c1ccc2c(c1)CCCN2C(C)=O | inactive: -10.5% |  |

| Structure (SMILES) | activity change, positive = activation | Potency |
| --- | --- | --- |
| COc1ccc(-c2noc(-c3cccnc3NCc3ccco3)n2)cc1 |  | active: 11.2 µM |
| Cc1cccc(-n2c(=O)c3c(c4cc(C)ccc4n3C)n(CC(=O)NCCC3=CCCCC3)c2=O)c1 | inactive: -8.84% |  |
| CCC1CN(C(=O)N2CCC(C(=O)NCCN(CC)CC)CC2)c2ccccc2O1 (stereo not given) | inactive: -7.19% |  |
| CCOC(=O)CSc1nc2ccccc2c(=O)n1CCc1ccc(OC)c(OC)c1 | inactive: -54.7% |  |
| COc1ccc(-c2onc(C)c2C)cc1S(=O)(=O)NCC1CCN(Cc2ccccc2F)CC1 | inactive: -17.9% |  |
| Cc1ccc(Oc2c(C(F)(F)F)oc3cc(OCC(=O)NC4CCCCC4)ccc3c2=O)cc1 | inactive: 2.81% |  |
| CCCN1C(=O)C(O)(CC(=O)c2ccc(CC)cc2)c2ccccc21 (stereo not given) | inactive: -19.1% |  |
| CCc1cccc(C)c1NC(=O)CSc1nc(C)cc(C)c1C(=O)Nc1ccccc1 | inactive: -19.5% |  |
| COc1ccc(NC(=O)C(c2ccc(C)cc2)N(C)C(=O)Cc2cccs2)cc1 (stereo not given) | inactive: 4.69% |  |
| Cc1c(Cl)cccc1NC(=O)C(C)n1c(=O)cc(-c2ccccc2)c2c(C)nn(C)c21 (stereo not given) | inactive: -1.81% |  |
| CCc1ccc(NC(=O)c2sc3nc(C)c(Cl)c(C)c3c2N)cc1 |  | active: 2.51 µM |
| O=C(Cn1c(-c2cccs2)cc2cc(Cl)ccc21)N1CCN(c2ccccc2)CC1 | inactive: -9.9% |  |
| COc1ccc(-c2cccc(NS(=O)(=O)c3cc(C)c(OC)c(C)c3C)c2)nn1 | inactive: -53.4% |  |
| CCOc1ccccc1C(=O)N1CC(=O)Nc2ccc(Cl)cc2C1c1ccccc1 (stereo not given) | inactive: -30.4% |  |
| Cc1ccc(NC(=O)C2CCCN2S(=O)(=O)c2ccc3c(c2)CCCC(=O)N3)cc1C (stereo not given) | inactive: -34.1% |  |
| O=C(Cn1c(=O)c2cc(Cl)ccc2n2nncc12)Nc1ccccc1 | inactive: -11.2% |  |
| Cc1ccc(NC(=O)Cn2cc(S(=O)(=O)c3ccc(F)cc3)c(=O)c3cc4c(cc32)OCO4)cc1 | inactive: -19.6% |  |
| CCOc1ccccc1C1CC(=O)NC(C)=C1C(=O)OC1CCCCCC1 (stereo not given) | inactive: -44.7% |  |
| Cc1cccc(Oc2nc3ccccn3c(=O)c2/C=C(\C#N)c2nc3ccccc3s2)c1C | inactive: 2.49% |  |
| COc1ccc(-n2c3c(c(=O)[nH]c2=O)C(NC(C)=O)(C(F)(F)F)C(=O)N3)cc1 (stereo not given) | inactive: 13.4% |  |
| COCCNC(=O)Cn1c(=O)n(Cc2ccc(C(=O)NCCc3ccc(OC)c(OC)c3)cc2)c(=O)c2ccccc21 | inactive: -22.3% |  |
| COc1cc(Cl)c(C)cc1NC(=O)CCCN1C(=O)C(c2ccccc2)Oc2cccnc21 (stereo not given) | inactive: -36.8% |  |
| COc1ccc(NC(=O)C2CCCN(S(=O)(=O)c3cn(C)cn3)C2)cc1Cl (stereo not given) | inactive: -14.6% |  |

| Structure (SMILES) | activity change, positive = activation | Potency |
| --- | --- | --- |
| COc1ccc(CCNC(=O)c2ccc3c(c2)CCN3S(=O)(=O)c2ccc(Cl)cc2)cc1 | inactive: -33% |  |
| COc1ccc(C(=O)N(Cc2sccc2C)C2CCS(=O)(=O)C2)cc1Cl (stereo not given) | inactive: -10.7% |  |
| Cc1cc(C)c(S(=O)(=O)Nc2cc(-c3cn4ccccc4n3)ccc2C)cc1C | inactive: -17.4% |  |
| CCN1CCN(C(=O)c2ccc3c(c2)N(Cc2ccc(Cl)cc2)C(=O)c2ccccc2S3(=O)=O)CC1 | inactive: -10.6% |  |
| Cc1ccc(C(=O)c2sc(Nc3ccccc3F)c(S(=O)(=O)c3ccccc3)c2N)c(C)c1 | inactive: -31.2% |  |
| O=C(NCc1ccc2c(c1)OCO2)c1ccc2c(c1)N(Cc1cccc(Cl)c1)C(=O)c1ccccc1S2 | inactive: -14.4% |  |
| Cc1cccc(N2CCN(C(=O)C3CCN(S(=O)(=O)c4c(C)noc4/C=C/c4ccccc4F)CC3)CC2)c1C | inactive: 4.91% |  |
| O=C(Cn1ncc2c([nH]c3ccccc32)c1=O)Nc1cc(F)ccc1F | inactive: -17.5% |  |
| O=C(Nc1nnc(S(=O)(=O)N2CCCCCC2)s1)c1ccc(Br)cc1 | inactive: -14.5% |  |
| COc1c(Cl)cc(C(=O)Nc2cccc(-c3nc4ccccc4[nH]3)c2)cc1Cl | inactive: -36.1% |  |
| Cc1cc(C)c(Cn2c3ccccc3c3cnn(CC(=O)NCCc4ccccc4)c(=O)c32)c(C)c1 | inactive: -15.7% |  |
| COc1ccc(Cl)cc1NC(=O)Cn1nnc2sc3c(c2c1=O)CCC(C(C)(C)C)C3 (stereo not given) | inactive: -6.62% |  |
| CCc1cccc(C)c1NS(=O)(=O)c1c(C(=O)N2CCCCCC2)c(C)n(C)c1C | inactive: -12.2% |  |
| Cc1ccc(Cl)cc1N1CCN(C(=O)CN2C(=O)COc3ccc(S(=O)(=O)N4CCOCC4)cc32)CC1 | inactive: -18.4% |  |
| O=C(NCc1ccc(F)cc1)c1ccc(CSc2nc3ccncc3n2Cc2ccc(F)cc2)cc1 | inactive: -20.5% |  |
| CCOC(=O)c1c(Nc2cccc(O)c2)nnc(-c2ccccc2)c1-c1ccccc1 | inactive: -21.5% |  |
| COc1cc(OC)c(NC(=O)c2c(C)nn(-c3ccc(C)cc3)c2-n2cccc2)cc1Cl | inactive: -8.42% |  |
| COc1ccc(C(=O)NCCn2cc(SCC(=O)Nc3ccccc3)c3ccccc32)cc1OC | inactive: -36% |  |
| COc1ccc(OC)c(NC(=O)c2ccc(-c3nc(CSc4ccccc4)c(C)o3)cc2)c1 | inactive: -4.94% |  |
| CC(C)(C)C(=O)Cn1c(=O)n(CCCCCC(=O)NCc2ccc3c(c2)OCO3)c(=O)c2sccc21 | inactive: -27.4% |  |
| CCCCn1cc(S(=O)(=O)c2ccc(CC)cc2)c(=O)c2cc(F)c(N3CCCC(C)C3)cc21 (stereo not given) | inactive: -11.1% |  |
| COc1ccccc1CCNC(=O)c1ccc(NC(=O)N2CC(C)Sc3ccccc32)cc1 (stereo not given) | inactive: -27.3% |  |
| Cc1ccc(C(=O)CSc2nc3cc(C(=O)NC4CCCC4)ccc3c(=O)n2CC2CCCO2)cc1 (stereo not given) | inactive: 3.48% |  |

| Structure (SMILES) | activity change, positive = activation | Potency |
| --- | --- | --- |
| CSc1cccc(NS(=O)(=O)c2ccc3[nH]cc(C(=O)N4CCCC4)c(=O)c3c2)c1 | inactive: -3.64% |  |
| Cc1cc(C)c(Cn2c3ccccc3c3cnn(CC(=O)NC4CCCCCC4)c(=O)c32)c(C)c1 | inactive: -14.3% |  |
| COc1ccc(Cn2cc(C(=O)c3ccc(Cl)cc3)c(=O)c3cc4c(cc32)OCO4)cc1 | inactive: -16.2% |  |
| CC(C)(Sc1cc(C(C)(C)C)c(O)c(C(C)(C)C)c1)Sc1cc(C(C)(C)C)c(O)c(C(C)(C)C)c1 | inactive |  |
| CCc1ccc(Nc2nn3c(=O)c4cc5c(cc4nc3s2)OCO5)cc1 | inactive: -12.2% |  |
| Cc1ccc(-n2nc3c(N4CCC(C(=O)N5CCC(C)CC5)CC4)nnc(C)c3c2C)cc1 | inactive: -16.3% |  |
| O=C(Nc1cccc(Cl)c1Cl)c1cc(S(=O)(=O)N2CCC3(CC2)OCCO3)ccc1F | inactive: -15.9% |  |
| COc1cc(OC)cc(C(=O)Nc2ccc(S(=O)(=O)N3CCCCC3c3cccnc3)cc2)c1 (stereo not given) | inactive: -46.4% |  |
| Cc1cc(C)cc(NC(=O)C2CCCN2S(=O)(=O)c2ccc3c(c2)C(C)(C)C(=O)N3C)c1 (stereo not given) | inactive: -28.3% |  |
| CCOC(=O)c1ccc(NC(=O)c2ccc3c(c2)c(C)c(C)n3Cc2ccc(F)cc2)cc1 | inactive: -23.8% |  |
| CCOC(=O)C1(C)C=C(Nc2ccc(OC)cc2)C(=O)N1c1ccccc1 (stereo not given) | inactive: 2.06% |  |
| COc1ccccc1NC(=O)c1oc2ccccc2c1NC(=O)c1c(F)cccc1F | inactive: 0% |  |
| CCOc1ccccc1N1CC(c2nc3ccccc3n2CCOc2ccc(OC)cc2)CC1=O (stereo not given) | inactive: -47.2% |  |
| CC(=O)N(Cc1cccnc1)c1nc2c(C)cc(C)cc2s1 | inactive: -13.7% |  |
| COc1ccc(CNC(=O)c2cc(-c3cccs3)nc3ccccc23)c(OC)c1 | inactive: -1.84% |  |
| CCOC(=O)c1sc(NC(=O)c2nc3ncccn3n2)c(C(=O)OC(C)C)c1C | inactive: -2.8% |  |
| CC1CCc2c(sc3nnn(Cc4ccccc4)c(=O)c23)C1 (stereo not given) | inactive: -11.1% |  |
| Cc1ccc(NS(=O)(=O)c2ccc3[nH]c4c(c3c2)CCCC4)c(C)c1 | inactive: -28.7% |  |
| CC(C)Cn1c(=O)c2sccc2n2c(CCCC(=O)NCC(C)c3ccccc3)nnc12 (stereo not given) | inactive: -15.3% |  |
| O=C(NCCN1CCN(c2ccccc2F)CC1)C1COc2ccccc2C1 (stereo not given) | inactive: -15.9% |  |
| O=C(CSc1oc(-c2ccccc2)nc1S(=O)(=O)c1ccc(Br)cc1)NC1CCCCC1 | inactive: -10% |  |
